Laboratory results published in the supplement of paper PMC4604168 (melanoma cell lines).
This is one part of the list. Single values are uncertain, as repeats are few or missing.

What was measured:
Test in all cases: cell count relative to DMSO control; melanoma cells; higher = more viable cells
Conditions in all cases: library dose: low library concentration; 72 h
MZ2-MEL = tested on: MZ2-MEL
MeWo = tested on: MeWo
RPMI7951 = tested on: RPMI7951
RVH-421 = tested on: RVH-421
SkMel28 = tested on: SkMel28
SkMel2 = tested on: SkMel2
SkMel30 = tested on: SkMel30
UACC62 = tested on: UACC62
SkMel5 = tested on: SkMel5
UACC257 = tested on: UACC257
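Also: cell number obtained by counting DAPI-stained nuclei in high-throughput microscope images with image analysis software, screen run in 1,536-well plates.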

| Structure (SMILES) | cell count (MZ2-MEL) [%] | cell count (MeWo) [%] | cell count (RPMI7951) [%] | cell count (RVH-421) [%] | cell count (SkMel28) [%] | cell count (SkMel2) [%] | cell count (SkMel30) [%] | cell count (UACC62) [%] | cell count (SkMel5) [%] | cell count (UACC257) [%] |
| --- | --- | --- | --- | --- | --- | --- | --- | --- | --- | --- |
| OCc1c[nH]c2ccccc12 [Indole-3-carbinol] + COCC[n+]1c2c(n(Cc3cnccn3)c1C)C(=O)c1ccccc1C2=O [YM155] (first compound 0.8 µM, partner dose 0.0004 µM) | 54.8 | 100 | 100 | 85.1 | 110 | 97.5 | 95.7 | 90.4 |  |  |
| C#Cc1cccc(Nc2ncnc3cc(OCCOC)c(OCCOC)cc23)c1 [erlotinib] + COCC[n+]1c2c(n(Cc3cnccn3)c1C)C(=O)c1ccccc1C2=O [YM155] (first compound 0.8 µM, partner dose 0.0004 µM) | 43.1 | 88.9 | 74.7 | 93.6 | 101 | 88.9 | 86.2 | 94.3 |  |  |
| OCc1c[nH]c2ccccc12 [Indole-3-carbinol] + COc1ccc(Cl)c(Nc2nc3ccccc3nc2NS(=O)(=O)c2cccc(NC(=O)C(C)(C)N)c2)c1 [XL147] (first compound 0.8 µM, partner dose 0.8 µM) | 93.9 | 96.4 | 106 | 90.2 | 97.1 | 103 | 80.9 | 91.7 |  |  |
| OCc1c[nH]c2ccccc12 [Indole-3-carbinol] + C#Cc1cccc(Nc2ncnc3cc(OCCOC)c(OCCOC)cc23)c1 [erlotinib] (first compound 0.8 µM, partner dose 0.8 µM) | 85.8 | 83.2 | 86.6 | 90.4 | 86.5 | 87.8 | 94.4 | 89.8 |  |  |
| Cn1c(Nc2ccc(C(F)(F)F)cc2)nc2cc(Oc3ccnc(-c4ncc(C(F)(F)F)[nH]4)c3)ccc21 + Cn1nnc2c(C(N)=O)ncn2c1=O [temozolomide] (first compound 0.08 µM, partner dose 2 µM) | 86.9 | 72 | 51.9 | 58.5 | 43.3 | 63.7 | 53.4 | 47.3 |  |  |
| OCc1c[nH]c2ccccc12 [Indole-3-carbinol] + Cc1nc(Nc2ncc(C(=O)Nc3c(C)cccc3Cl)s2)cc(N2CCN(CCO)CC2)n1 [dasatanib] (first compound 0.8 µM, partner dose 0.004 µM) | 73.3 | 88.4 | 65 | 80.4 | 73.4 | 101 | 87 | 79.2 |  |  |
| COCC[n+]1c2c(n(Cc3cnccn3)c1C)C(=O)c1ccccc1C2=O + Cc1ccc(NC(=O)c2cccc(N(C)C)c2)cc1NC(=O)c1ccc(O)cc1 [ZM336372] (first compound 0.0004 µM, partner dose 2 µM) | 33 | 110 | 72.7 | 94.8 | 103 | 82.8 | 89.2 | 95.3 | 59 | 91.2 |
| Clc1ccc(Nc2nnc(Cc3ccncc3)c3ccccc23)cc1 [vatalanib] + Nc1cccc2c1CN(C1CCC(=O)NC1=O)C2=O [lenalidomide] (first compound 2 µM, partner dose 1 µM) | 99.3 | 76.8 | 106 | 87.5 | 105 | 97 | 120 | 86.2 |  |  |
| Clc1ccc(Nc2nnc(Cc3ccncc3)c3ccccc23)cc1 [vatalanib] + CN(NC(=O)CC(=O)NN(C)C(=S)c1ccccc1)C(=S)c1ccccc1 [STA4783] (first compound 2 µM, partner dose 0.006 µM) | 93.1 | 95.9 | 86.1 | 122 | 87.6 | 92.5 | 109 | 90.7 | 84.7 | 109 |
| OCc1c[nH]c2ccccc12 [Indole-3-carbinol] + COc1cc2ncnc(Nc3ccc(Oc4ccccc4)cc3)c2cc1OC [SrcI1] (first compound 0.8 µM, partner dose 2 µM) | 99.1 | 97 | 95.9 | 120 | 81.1 | 112 | 102 | 97.6 | 104 | 101 |
| Clc1ccc(Nc2nnc(Cc3ccncc3)c3ccccc23)cc1 [vatalanib] + Cn1c(Nc2ccc(C(F)(F)F)cc2)nc2cc(Oc3ccnc(-c4ncc(C(F)(F)F)[nH]4)c3)ccc21 [CHIR265] (first compound 2 µM, partner dose 0.08 µM) | 72.8 | 63.5 | 61.8 | 53.4 | 80.2 | 86.6 | 58.8 | 58.8 |  |  |
| OCc1c[nH]c2ccccc12 [Indole-3-carbinol] + C[C@]1(c2nc3c(C(N)=O)cccc3[nH]2)CCCN1 [Veliparib] (first compound 0.8 µM, partner dose 1.4 µM) | 92.3 | 106 | 128 | 96.5 | 97.6 | 96.1 | 79.3 | 92.2 |  |  |
| Clc1ccc(Nc2nnc(Cc3ccncc3)c3ccccc23)cc1 [vatalanib] + C[C@]1(c2nc3c(C(N)=O)cccc3[nH]2)CCCN1 [Veliparib] (first compound 2 µM, partner dose 1.4 µM) | 97.4 | 78.8 | 88.9 | 101 | 92.4 | 96.8 | 97.1 | 93.2 |  |  |
| C#Cc1cccc(Nc2ncnc3cc(OCCOC)c(OCCOC)cc23)c1 [erlotinib] + Cn1nnc2c(C(N)=O)ncn2c1=O [temozolomide] (first compound 0.8 µM, partner dose 2 µM) | 96.3 | 96.6 | 90.4 | 87.9 | 77.9 | 103 | 79 | 87.1 |  |  |
| C#Cc1cccc(Nc2ncnc3cc(OCCOC)c(OCCOC)cc23)c1 [erlotinib] + Cn1c(Nc2ccc(C(F)(F)F)cc2)nc2cc(Oc3ccnc(-c4ncc(C(F)(F)F)[nH]4)c3)ccc21 [CHIR265] (first compound 0.8 µM, partner dose 0.08 µM) | 75.7 | 71.1 | 60 | 80.2 | 56.4 | 93.3 | 41 | 64.9 |  |  |
| COCC[n+]1c2c(n(Cc3cnccn3)c1C)C(=O)c1ccccc1C2=O + Nc1cccc2c1CN(C1CCC(=O)NC1=O)C2=O [lenalidomide] (first compound 0.0004 µM, partner dose 1 µM) | 46.2 | 98.8 | 67.3 | 111 | 103 | 78.8 | 86.6 | 96.2 |  |  |
| OCc1c[nH]c2ccccc12 [Indole-3-carbinol] + Cn1c(Nc2ccc(C(F)(F)F)cc2)nc2cc(Oc3ccnc(-c4ncc(C(F)(F)F)[nH]4)c3)ccc21 [CHIR265] (first compound 0.8 µM, partner dose 0.08 µM) | 89.8 | 65.9 | 69.6 | 56 | 75.2 | 87.4 | 55.2 | 67.7 |  |  |
| OCc1c[nH]c2ccccc12 [Indole-3-carbinol] + Cn1nnc2c(C(N)=O)ncn2c1=O [temozolomide] (first compound 0.8 µM, partner dose 2 µM) | 97.3 | 97.3 | 98.2 | 94.5 | 63.8 | 104 | 81.6 | 83.2 |  |  |
| Clc1ccc(Nc2nnc(Cc3ccncc3)c3ccccc23)cc1 [vatalanib] + Cn1nnc2c(C(N)=O)ncn2c1=O [temozolomide] (first compound 2 µM, partner dose 2 µM) | 95.5 | 70.4 | 89.1 | 80 | 78 | 98.2 | 91 | 92.1 |  |  |
| COCC[n+]1c2c(n(Cc3cnccn3)c1C)C(=O)c1ccccc1C2=O + Cn1nnc2c(C(N)=O)ncn2c1=O [temozolomide] (first compound 0.0004 µM, partner dose 2 µM) | 43.7 | 95.1 | 73 | 101 | 85 | 79.7 | 89.6 | 94.3 |  |  |
| Nc1cccc2c1CN(C1CCC(=O)NC1=O)C2=O (configuration not stated) [lenalidomide] + NCC(=O)Nc1ccc(-n2nc(C(F)(F)F)cc2-c2ccc3c(ccc4ccccc43)c2)cc1 [OSU03012] (first compound 1 µM, partner dose 1 µM) | 92.6 | 57.2 | 106 | 93.9 | 79.2 | 91.7 | 50.6 | 86.4 | 91 | 94.2 |
| Nc1cccc2c1CN(C1CCC(=O)NC1=O)C2=O (configuration not stated) [lenalidomide] + Cc1ccc(NC(=O)c2cccc(N(C)C)c2)cc1NC(=O)c1ccc(O)cc1 [ZM336372] (first compound 1 µM, partner dose 2 µM) | 84.4 | 99.4 | 98.4 | 96.9 | 78.5 | 108 | 80.2 | 106 | 99.8 | 69.9 |
| O=C(CCCCCCC(=O)Nc1ccccc1)NO [vorinostat] + Oc1nc(-c2ccc(C(F)(F)F)cc2)nc2c1CSCC2 [XAV939] (first compound 0.08 µM, partner dose 2 µM) | 90.7 | 88.4 | 60.1 | 98.8 | 61.7 |  | 89.7 | 98.3 | 70.1 | 74.8 |
| O=C(CCCCCCC(=O)Nc1ccccc1)NO [vorinostat] + N#Cc1c(O)c2c(-c3ccc(-c4ccccc4O)cc3)csc2[nH]c1=O [A769662] (first compound 0.08 µM, partner dose 2 µM) | 97.4 | 97.4 | 80.8 | 100 | 80.9 |  | 108 | 76.6 | 95.1 | 86.1 |
| Nc1cccc2c1CN(C1CCC(=O)NC1=O)C2=O (configuration not stated) [lenalidomide] + COc1ccc(COc2ccc(Cc3cnc(N)nc3N)cc2OC)cc1 [GW2580] (first compound 1 µM, partner dose 1 µM) | 99.5 | 89.9 | 104 | 102 | 93.2 |  | 106 | 80.3 | 97.8 | 90.5 |
| O=C(CCCCCCC(=O)Nc1ccccc1)NO [vorinostat] + COC(=O)c1sccc1S(=O)(=O)Nc1ccc(Nc2ccccc2)cc1OC [GSK0660] (first compound 0.08 µM, partner dose 1 µM) | 96.8 | 105 | 90.6 | 97.1 | 72.5 |  | 105 | 84.5 | 93.2 | 93.4 |
